# In PubChem BioAssay AID651820 (National Center for Advancing Translational Sciences (NCATS), 2012):
# Among all 340,000 compounds or so, about 12,000 (3.5%) were called active. This list was built around the results that the source calls inconclusive (neither active nor inactive); the mix of calls is not that of the screen. Calls come from the whole dose curve; as a rule, active = well fitted inhibition curve with a large enough effect; inconclusive = small, poorly fitted or top-dose-only effect, or another doubt; inactive = no such curve, though single readings can be large or run the other way. No potency is given beside an inconclusive call; the fits are too rough.
# Experiment: qHTS Assay for Inhibitors of Hepatitis C Virus (HCV)
# Conditions: Huh7.5.1 HCVcc-Cre (HCVcc is cell-culture hepatitis C virus) infection, luciferase reporter, 44 h; series mostly up to 41.8 µM
# Text: Hepatitis C virus (HCV) infects about 200 million people in the world. Many infected people progress to chronic liver disease including cirrhosis with a risk of developing liver cancer. To date, there is no effective vaccine for hepatitis C. Current therapy based on interferon is only effective in about half of the patients and is associated with significant adverse effects. The fraction of people with HCV who can complete a successful treatment is estimated to be no more than 10 percent. Recent development of direct-acting antivirals against HCV, such as protease and polymerase inhibitors, is promising but still requires combination with peginterferon and ribavirin for maximal efficacy. In addition, these agents are associated with high rate of resistance and many have significant side effects. Due to the lack of a culture system for infectious HCV, the search for new HCV drugs has been greatly hampered. […]
# The assay will start with plating 1,000 cells/well in 3 µL volume and culture for 4 h. […] A volume of 4.5 µL luciferase substrates will be added to each well and the plates will be incubated at room temperature for 15 min. and then read for 15 sec. for the luciferase activity
# Tags give direction and shape of the fitted curve.
row,Compound,Potency
1,CCOC(=O)c1sc(N2C(=O)C(O)=C(C(=O)c3ccc(C)o3)C2c2cccc([N+](=O)[O-])c2)nc1C (stereo unspecified),"inconclusive [inhibitor, single point]"
